Laboratory results taken from the supplement of paper PMC3334620.
In all, about 33,000 sequences were measured (“E-score (-0.5 to 0.5)”: median about -0.053, highest 2% from about 0.37 on). The list shows a part of the results.

Target: Hap1 (UniProt P0CE41)
Assay: PBM E-score (8-mer binding enrichment) (E-score (-0.5 to 0.5)); higher = stronger / more preferred TF binding; most listed sequences are background and not binding sites
Details: protein concentration: 200 nM; construct: GST-DNA-binding domain
Procedure, shortened: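 For each ungapped eight-base word taken together with its reverse complement, the Universal PBM Analysis Suite assigned an E-score. Binding data came from GST-tagged yeast transcription factors, applied at about 100-200 nM, on universal all-10-mer Agilent arrays made double-stranded by primer extension. Fluorescent anti-GST marked bound protein, and scans were normalised with masliner.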

Chain of UniProt P0CE41 (P0CE41 whole entry): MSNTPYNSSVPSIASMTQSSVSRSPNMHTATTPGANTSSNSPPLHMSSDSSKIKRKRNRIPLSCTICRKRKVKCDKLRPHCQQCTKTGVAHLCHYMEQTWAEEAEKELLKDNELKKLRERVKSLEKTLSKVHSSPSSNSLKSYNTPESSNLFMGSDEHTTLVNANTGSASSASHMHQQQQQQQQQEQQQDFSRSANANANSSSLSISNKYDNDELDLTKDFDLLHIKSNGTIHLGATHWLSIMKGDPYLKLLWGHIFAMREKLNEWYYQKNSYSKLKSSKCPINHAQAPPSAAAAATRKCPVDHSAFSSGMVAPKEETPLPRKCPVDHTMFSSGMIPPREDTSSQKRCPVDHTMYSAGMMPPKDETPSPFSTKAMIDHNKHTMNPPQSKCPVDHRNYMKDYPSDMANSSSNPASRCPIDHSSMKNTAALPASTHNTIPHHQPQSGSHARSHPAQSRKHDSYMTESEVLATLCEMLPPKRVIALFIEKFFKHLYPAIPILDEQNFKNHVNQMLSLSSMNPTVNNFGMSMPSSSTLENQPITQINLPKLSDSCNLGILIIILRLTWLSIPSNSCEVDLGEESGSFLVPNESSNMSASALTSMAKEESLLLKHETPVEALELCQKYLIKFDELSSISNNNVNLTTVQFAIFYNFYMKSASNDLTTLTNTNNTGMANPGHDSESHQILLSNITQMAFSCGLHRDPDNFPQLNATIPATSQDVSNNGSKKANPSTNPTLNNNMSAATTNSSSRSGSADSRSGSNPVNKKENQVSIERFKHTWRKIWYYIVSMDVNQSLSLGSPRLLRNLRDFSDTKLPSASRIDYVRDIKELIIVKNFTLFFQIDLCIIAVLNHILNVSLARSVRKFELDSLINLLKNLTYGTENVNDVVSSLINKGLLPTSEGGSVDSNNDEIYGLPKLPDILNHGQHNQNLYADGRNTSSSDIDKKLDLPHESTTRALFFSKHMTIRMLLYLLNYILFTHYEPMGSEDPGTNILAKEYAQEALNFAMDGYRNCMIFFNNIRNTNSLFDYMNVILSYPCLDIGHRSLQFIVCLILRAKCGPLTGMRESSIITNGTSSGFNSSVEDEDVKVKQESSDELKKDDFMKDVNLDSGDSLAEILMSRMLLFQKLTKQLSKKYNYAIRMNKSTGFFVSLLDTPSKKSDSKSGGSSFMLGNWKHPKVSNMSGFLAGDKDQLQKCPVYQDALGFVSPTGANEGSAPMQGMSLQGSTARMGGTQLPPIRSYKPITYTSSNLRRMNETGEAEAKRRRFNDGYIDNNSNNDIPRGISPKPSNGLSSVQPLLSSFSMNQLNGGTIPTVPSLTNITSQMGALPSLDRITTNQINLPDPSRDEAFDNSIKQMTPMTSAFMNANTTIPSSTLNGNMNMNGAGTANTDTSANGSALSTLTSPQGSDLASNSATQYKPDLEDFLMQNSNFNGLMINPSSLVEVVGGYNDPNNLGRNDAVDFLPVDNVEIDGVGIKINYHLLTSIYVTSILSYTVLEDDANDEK

Sequence | PBM E-score
CGATGACA | -0.0139
CTGGCGGA | -0.0445
CTAGCCCA | -0.152
AGTTCAGA | -0.211
AGGACCTG | -0.0537
CGCTCACA | 0.00505
ATCAGCTA | -0.149
CCGTTTGA | 0.134
CCGTCTGA | -0.0177
ACTTAAGA | 0.112
GTGCGGCA | 0.0804
ACAATAGC | -0.13
TCAGGAGA | -0.0711
CCGTAACG | 0.169
GAGGGAAC | 0.0745
GAGGTAAA | 0.0266
ACGGTATA | 0.0727
GGAGAGCC | -0.00118
AACGTGTC | -0.127
CCGCTCAC | 0.0696
ATCCTGCC | -0.0978
ACGTTGGG | -0.249
GCTTACAC | -0.106
GGAACAAC | 0.192
AAAATTCC | 0.26

Sequence | PBM E-score
CACGAAGC | -0.0951
ACTTGCCT | -0.0546
GTTTCCCA | -0.134
GATGCGAC | 0.13
CGCGGCAC | 0.0706
GAAACGTA | -0.151
CCGAGGAC | 0.302
ACAGTCGT | -0.276
GAACAGCA | 0.0236
GTGGCGAA | 0.0646
ATGACAAC | -0.0114
GCTCAACA | -0.185
AAGCGACT | -0.223
TGCATAAA | -0.0692
GGTTGTCA | -0.136
AGGACCTC | -0.205
AAGACTCT | -0.297
GCATTTGA | 0.0798
ACTTCGTC | 0.0269
AGTTCCGA | 0.395
ACGGGGTA | -0.0439
CCGACTTC | 0.172
CCTATAGG | -0.0781
CACCGCCC | 0.275
CTTGCTGA | -0.178

Sequence | PBM E-score
CGCGAGTC | 0.105
CGAGTGTA | -0.109
ACACGGAT | 0.209
CTAGGACA | -0.22
ACAATACT | -0.0811
AAGCTTCA | -0.0857
CTTAATCA | 0.0547
AGCAGCGA | -0.0162
AACGTTGC | -0.099
ACGACATA | -0.279
GCAAACCC | 0.119
GTAAGGGA | 0.0397
AAACGGGT | 0.132
CTACGCAG | -0.145
CGTCTGGC | 0.00143
ATCGCAGC | -0.0973
GCTGTAAA | -0.311
ATACACAA | -0.109
AAACGGGG | 0.145
AGGCTCCG | 0.318
CCGGCAGC | 0.258
GAATTTAA | -0.0449
GTCGCCAA | -0.124
TCACAACA | -0.245
AAGAACTA | -0.00419

Sequence | PBM E-score
CATCTGTA | -0.224
AGTGGCTC | -0.193
AGGTACAG | -0.327
CACCAACA | -0.154
TCGAGTCA | -0.213
GATATTGA | 0.111
TAGAAACA | -0.182
ATATGACA | -0.202
CTACCACA | -0.162
CATGGCGA | -0.063
ATGTTGGG | -0.00446
CCGCCTGC | -0.144
CCACTCAA | -0.266
GGGGGAGA | 0.138
AGGACGGC | -0.176
AGCCGCGG | 0.291
ATTCGACA | -0.197
GCTAGGCA | -0.0444
ACACCTTC | 0.105
AGGAAGGA | -0.391
AACCCTTA | -0.158
TACAGCAA | -0.0896
AACTGAAC | -0.0611
CGGGTTCC | 0.262
CCAGCTGA | -0.152

Sequence | PBM E-score
CATAAAAC | 0.0538
ATCCCTGC | -0.0977
AATAATTC | 0.147
ACCCAGAA | -0.202
AGGACTAC | -0.157
AAATTAGG | 0.069
CAGGCACC | -0.237
ATTTAGGA | -0.132
AAGAGTCC | 0.109
GCCTCTGA | -0.294
ATAATGAA | -0.169
CTCGTCAG | -0.172
CCGCTCTC | 0.0913
ACATGCCA | -0.0718
CGCCTTGC | -0.032
TGACGTAA | -0.205
AGGATTTG | -0.207
CGTCTTAG | -0.205
ATAGCAGG | 0.0555
AACTCAGG | -0.116
CGCTGTAG | -0.00435
CGGTCCCC | 0.248
ACGCGGAG | 0.286
GACCAGAC | -0.143
AGGAGATA | 0.253

Sequence | PBM E-score
GGGCCGTA | 0.187
TCTCTTCA | 0.0192
AAAGCCTA | -0.199
CTCCCCAG | -0.199
ATGTGTTA | -0.198
TAGGTGAA | -0.00535
CTAGGGCA | -0.305
AGTCTCGC | -0.133
AACGGCAA | 0.0886
GCGACCAA | -0.0589
CGCGTAAA | 0.188
CATTCATA | 0.0229
ACCCTAAG | -0.192
CCTGCACA | -0.248
ATGCATAA | -0.256
CCCGGTAC | 0.296
CTTGGTGC | -0.218
ATGCATCC | 0.0722
GAATCCTA | -0.0221
CTTCCGCA | 0.128
CTGGAAAG | -0.166
ACATATCA | -0.053
CGAGTGGC | 0.0984
CTATGGAA | -0.0331
ACCTTGGC | 0.0492

Sequence | PBM E-score
CAAACATG | -0.284
CTTGGTTC | -0.101
CACAATAC | -0.127
ACGTCGTC | 0.0183
AGCCAAAA | -0.131
AGTTCGTA | 0.0523
TGCGTCCA | -0.0664
CCTCTCAC | -0.242
CACAGAAA | -0.238
CCCAAGTC | -0.143
GACTATGA | -0.143
CGGCATAA | 0.254
CTCAGGGC | -0.134
CTGCCTCC | 0.00063
TTAACCAA | -0.186
GAAACGCA | -0.0454
GTAGGAAC | -0.103
GAATACCA | -0.0351
AAAGGGGC | -0.162
TCCCTACA | -0.0494
AAGCCGGG | 0.238
CGTTGTGA | -0.076
ACCCTCTA | -0.189
ACATGGAT | -0.145
AACTGCGT | -0.16

Sequence | PBM E-score
AAAATTAT | 0.122
CATCTTTA | -0.165
ATAGTCCC | 0.0684
ATCCGGAA | 0.396
AACGACAC | -0.167
GATGAACA | -0.0212
CTTGTTTC | -0.0739
ATCTTCAT | -0.0312
CCTCGTGC | 0.056
CCTCGGAA | 0.314
CAAGCGAC | -0.0916
ACTCATAG | -0.233
GCTTAGCA | -0.0588
AACGATAG | 0.118
ATACGTTA | -0.106
CTAGCCCC | 0.0617
ATCAGAGC | -0.0942
GCACTAGA | -0.14
AGTCCAAT | -0.139
TCAACACA | -0.17
CTCAATAA | -0.139
GTAGTCCA | -0.135
CTCCTCAC | -0.186
GCGCGGCA | 0.0895
TACCGTAA | 0.0658

Sequence | PBM E-score
GCTATCGA | 0.0431
AAAGGGTC | 0.0161
AGGGCACG | -0.153
CCTGGGTC | -0.0881
AGTTGATG | -0.292
AAGTACAG | -0.329
ATCTGAAG | -0.198
AATCGTTC | -0.0339
AAATTGCT | -0.254
CGCAGCAA | -0.197
ACCCACAC | -0.0782
GGGCGCTA | -0.012
ATCCCAAG | -0.0728
CGTCCAAG | -0.111
ATCTTATC | 0.0764
TGTCTAAA | -0.17
GGAGAGCA | -0.162
CATAGATG | -0.172
GAGGGCGC | 0.0213
GACGCAGA | 0.117
GAGTTAAA | 0.0663
GGAAGGAC | -0.00898
GGGACTAC | 0.0857
AATATGCC | 0.0223
CTTGGTAC | -0.213

Sequence | PBM E-score
CTTTTCAC | -0.041
CTGATTAA | 0.00066
CGAGCGGA | 0.37
CAGTAATA | -0.163
CAATGCAC | -0.201
ACGGGCAG | -0.0462
CCACAGTA | -0.213
ATTTGTTA | -0.033
GAGATTAA | -0.0472
AGAGGCTC | -0.088
CATTAATG | -0.0191
AATATAGT | 0.0483
ATATGAAA | -0.078
ATAATTGG | 0.105
TATCAGAA | 0.0826
TCCGACCA | 0.286
CTGCAGTC | -0.176
ATAACCGG | 0.363
AGACTATG | -0.119
ATGAGTTC | -0.0156
GTATTATA | 0.094
AAAAAAAT | 0.0105
TGGTAACA | -0.141
CTCAGAGC | -0.254
GAAAACGA | 0.00989

Sequence | PBM E-score
AAATTACC | 0.0508
AGAGTAGC | -0.227
GAGAAAAC | 0.0285
TCGCGCAA | -0.103
ACAAGGCG | -0.0873
TTAAATAA | 0.171
CAGGAATG | -0.213
CGTGGAGC | 0.0223
ATCCGTAA | 0.291
GAGCAGAA | 0.00194
CGCGCCTA | 0.132
TGAGTAAA | -0.176
GGATAGGA | 0.0403
ACTTGGAT | -0.211
AACTCGGG | 0.198
AGATGTCG | 0.0897
ACCCGCGA | 0.0755
CATGGTCG | -0.066
GGCAACCC | -0.128
AGGCGGCA | -0.172
CCTAAGAC | -0.154
CAACACTA | -0.0443
AACACATT | 0.00416
AGTTGTCG | 0.12
GAAATGGA | -0.116

Sequence | PBM E-score
ACTATGCT | -0.118
AGCATTCA | -0.17
AAAGGCCC | 0.0104
GATGCATC | 0.0209
ATCCATAA | 0.138
AGTGATTC | -0.0523
ACGGTAAT | 0.219
ACATCAGA | -0.236
AACCTGGC | -0.169
CGAGATGA | 0.13
CCCCTGGC | 0.00023
CAGTGAAG | -0.166
ATCTTGGG | -0.0696
GTAGAGTA | -0.102
GGTCACAA | 0.00707
GACTAATC | 0.231
GTCCCAAC | -0.11
ACTAATTC | 0.129
CAAGGTGC | -0.0166
AACCATGT | -0.0592
GCAACACA | -0.101
ACCGAATG | 0.239
AAACGCCG | 0.402
AGTCTAAC | -0.0367
ACCTCTGA | 0.0681

Sequence | PBM E-score
GAGAGGGC | -0.178
CAACGGGG | 0.143
CCGTCAAG | 0.0352
AACAATAA | 0.0371
ATCACCAT | 0.0457
CATTTAAC | -0.0471
CTCGCCAC | -0.0597
CCCAAGGA | -0.167
GTATCGAC | -0.0815
ATTCACCG | 0.265
GTCCTACA | 0.145
ACTTGATC | -0.11
GGACGTTA | 0.214
AGCATAAG | -0.0611
AATCTGTA | -0.107
ATCACATC | -0.0189
AAACATCT | -0.105
GGTATCCA | 0.052
GTTGGTCA | -0.025
AACTAGCA | -0.0223
ACATCCTG | -0.0661
AGTAATCG | 0.0868
AGACTGCT | -0.211
AGATCTGC | -0.216
GCGTTCCC | 0.15

Sequence | PBM E-score
ACCATCAC | -0.153
GCGAACTA | 0.106
AGCATTGC | -0.00159
GGGTACAA | 0.127
CGGCAAAG | 0.234
ACGTTTCA | -0.112
CGACCGGC | 0.232
AGACGTGC | -0.0222
GCGTAAGA | 0.0174
AGCCTGTA | -0.131
AACGGAGG | 0.228
AAAATCCA | 0.054
GACTACCC | -0.0359
AATAGGCG | 0.224
AACTCTGT | -0.111
CGCCTACC | -0.0452
GTTTGCTA | -0.0274
CCACTATC | 0.202
GTAACATA | 0.0732
